# Hit rate of the full screen: of about 110,000 compounds, about 230 (0.21%) showed an effect of 50% or more. The list shows a part of the results.
# Biological target: DPAP1 (Plasmodium falciparum, UniProt Q8IIJ9)
# Experiment: primary screen, percent inhibition; read by cleavage of a fluorogenic dipeptide substrate; higher = more effect of the substance
# Design: species or system P. falciparum D10 trophozoite lysates; single well
# 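Also: 30 min substrate incubation versus DMSO and 10 µM JCP410 controls.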
# Chain of DPAP1 (Q8IIJ9 whole entry, looked up): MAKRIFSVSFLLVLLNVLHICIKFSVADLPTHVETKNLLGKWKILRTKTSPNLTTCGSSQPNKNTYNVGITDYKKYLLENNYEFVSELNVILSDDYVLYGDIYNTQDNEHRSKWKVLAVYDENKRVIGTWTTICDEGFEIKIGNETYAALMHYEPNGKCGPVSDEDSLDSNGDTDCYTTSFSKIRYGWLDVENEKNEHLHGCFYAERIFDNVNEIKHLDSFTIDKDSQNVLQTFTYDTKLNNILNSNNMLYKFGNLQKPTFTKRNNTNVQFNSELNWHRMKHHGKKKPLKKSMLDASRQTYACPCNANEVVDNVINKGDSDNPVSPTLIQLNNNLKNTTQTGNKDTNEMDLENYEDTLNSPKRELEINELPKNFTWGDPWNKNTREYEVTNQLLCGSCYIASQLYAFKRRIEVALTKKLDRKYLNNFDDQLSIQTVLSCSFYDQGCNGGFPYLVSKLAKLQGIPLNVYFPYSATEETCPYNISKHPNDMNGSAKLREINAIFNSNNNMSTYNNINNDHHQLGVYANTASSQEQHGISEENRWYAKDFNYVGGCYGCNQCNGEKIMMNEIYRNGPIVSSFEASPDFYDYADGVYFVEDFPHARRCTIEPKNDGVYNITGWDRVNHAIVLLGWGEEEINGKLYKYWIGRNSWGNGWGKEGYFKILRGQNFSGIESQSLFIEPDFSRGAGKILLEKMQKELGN
row,SMILES,% Inhibition @ 10 uM
1,N#C/C(=C\Nc1cnc2ccccc2c1)C(=O)NC(=O)Cc1ccccc1,-8.71%
2,Cc1nnc(N2C(=O)C(O)=C(C(=O)c3ccc(Cl)cc3)C2c2ccc(C(C)(C)C)cc2)s1 (stereo not drawn),3.8%
3,O=C(NCc1cccs1)c1cc(-c2ccccc2)on1,-3.56%
4,CCc1nn(CC(=O)NCCC2=CCCCC2)c(=O)c2cc3sccc3n12,-5.19%
5,CCCCCN(C(=O)NC(=O)NC1=C(C(=O)OC)SCC1)S(=O)(=O)c1ccccc1,-4.27%
6,N#CCNC(=O)C(Cc1ccccc1)NC(=O)c1ccc(-c2csc(NC(=N)N)n2)cc1 (stereo not drawn),-16.9%
7,c1ccc2c(c1)nnn2CN1CCOCC1,-0.615%
8,CC(NC(=O)C(=O)NCc1ccncc1)c1ccccc1 (stereo not drawn),-5.26%
9,CCCCOc1ccc(C(O)(CCN2CCOCC2)c2ccccc2)cc1 (stereo not drawn),2.16%
10,CCOC(=O)c1ccc(NC(=O)/C=C/c2ccc(C(C)C)cc2)cc1,0.317%
11,O=C(Nc1nc2c(s1)CCc1ccccc1-2)c1cccnc1,2.22%
12,CCCC1CCc2c(sc(NC(=O)C3CCCO3)c2C(N)=O)C1 (stereo not drawn),1.57%
13,CCOC(=O)c1c(C)[nH]c(C)c1S(=O)(=O)N(C)CC(=O)Nc1nc2ccc(OC)cc2s1,-7.09%
14,COc1ccc(-c2nnc3n(Cc4ccc(C)cc4)c(=O)c4ccccc4n23)c(O)c1,4.86%
15,O=C(O)CSc1nc(SCC(=O)O)c2ccccc2n1,2.09%
16,CC1(C)CN=C(NCc2cccnc2)S1,3.36%
17,COc1ccccc1OCC(=O)N(Cc1sccc1C)C1CCS(=O)(=O)C1 (stereo not drawn),1.99%
18,Cc1ccc2onc(CNC(=O)NCCCN(Cc3ccco3)C3CCCC3)c2c1,-1.11%
19,N#Cc1c(N)nc2c(c1-c1cccc(Br)c1)CCCC2,4.93%
20,CCOC(=O)c1c(NC(=O)CC(NC(=O)C(F)(F)F)c2ccccc2)sc2c1CCC2 (stereo not drawn),7.5%
21,Fc1ccc(CN2CCN(c3ccccc3F)CC2)c(F)c1,-1.77%

row,SMILES,% Inhibition @ 10 uM
1,O=C(Nc1ccc(S(=O)(=O)Nc2ncccn2)cc1)c1ccc(Br)o1,-3.45%
2,Cn1c(=O)n(CCc2ccccc2)c(=O)c2c1nc1n2CCN1Cc1ccccc1,3.57%
3,Cc1nn(C(C)C(=O)NCCCN2CCc3ccccc3C2)c(=O)c2nn(-c3ccccc3)c(C)c12 (stereo not drawn),2.48%
4,COc1ccc(CCNC(=O)C2CCCN(C(=O)c3cc4sccc4n3C)C2)cc1OC (stereo not drawn),-7.48%
5,O=C(NCCCN1CCC(Cc2ccccc2)CC1)C1CCCN(S(=O)(=O)N2CCOCC2)C1 (stereo not drawn),-3.16%
6,CC1CN(C(=O)c2ccc(COc3cccc4ccccc34)cc2)CC(C)O1 (stereo not drawn),-5.19%
7,CCN(CC)C(C)C(=O)NCC1(c2ccccc2)CCOCC1 (stereo not drawn),-10.5%
8,COc1ccc(CCNC(=O)CSc2nnc(CNC(=O)c3cccs3)o2)cc1OC,-3.62%
9,COc1cc(OC)cc(C(=O)Nc2sc3c(c2C(N)=O)CCCCC3)c1,2.01%
10,COc1cc(-c2nc3ccccn3c2/N=C/c2cc(OC)c(O)cc2Cl)ccc1O,6.7%
11,CC1CCCC(N(Cc2ccco2)C(=O)Nc2cn(C)c(=O)c3ccccc23)C1C (stereo not drawn),2.99%
12,O=C1/C(=C\c2ccncc2)N2CCC1CC2,-0.996%
13,CCOC(=O)c1c(NC(=O)Cn2nnc3ccccc32)sc2c1CCCC2,4.54%
14,COc1cccc(C2=NS(=O)(=O)N(C)C(C(=O)NC(C)(C)C)=C2)c1,6.98%
15,CC1=C(c2cccc(Br)c2)S(=O)(=O)N=C1N1CCC2(CC1)OCCO2,-2.85%
16,COc1ccc(-c2nc3c(n2O)CCc2nonc2-3)cc1,-3.26%
17,COc1ccc(CC(=O)n2nc(-c3ccc(Cl)cc3)nc2NCc2ccco2)cc1OC,-1.11%
18,CC(=O)Nc1ccc(NC(=O)Nc2ccccc2)cc1,4.67%
19,C(#Cc1ccccc1)CN1CCN(c2ccccn2)CC1,0.0289%
20,CC1=NC(C(F)(F)F)(C(F)(F)F)N=C2C=CC=CN12,0.032%
21,O=C(Nc1cc(Cl)ccc1Cl)[C@@H]1C[C@@H]1c1ccccc1,1.96%

row,SMILES,% Inhibition @ 10 uM
1,CC1CC(C)CN(C(=O)CSc2nc(O)c3c(n2)CCC3)C1 (stereo not drawn),-6.52%
2,O=[N+]([O-])c1ccc(N2CCN(Cc3ccoc3)CC2)cc1,-6.21%
3,COc1ccc(OC)c(-n2nnc(-c3nsc(NC(=O)c4cccs4)n3)c2C)c1,-4.35%
4,CC(=O)N(CN1C(=O)CCC1=O)c1cccc(Cl)c1,0.674%
5,CN(C)CCN(C)Cc1ccc(O)cc1,-6.12%
6,O=C(COc1cccc(NC(=O)c2ccccc2)c1)c1ccc(F)cc1,-0.123%
7,CCC1OC(c2ccc(OC)cc2)=Nc2ccccc21 (stereo not drawn),-3.95%
8,CC(C)CC1=NN2C(=N)/C(=C/c3cc(Cl)c(O)c(Cl)c3)C(=O)N=C2S1,-3.06%
9,O=[N+]([O-])c1ccccc1CN1CCC(N2CCCCC2)CC1,-5.42%
10,CCOc1ccc2c(c1)C(C)=CC(C)(C)N2Cc1cccc(CN2c3ccc(OCC)cc3C(C)=CC2(C)C)c1,-4.35%
11,O=C(CN(Cc1ccccc1)S(=O)(=O)c1ccccc1)NCc1ccncc1,0.146%
12,Cc1ccc2[nH]c(O)c(N=O)c2c1Br,-3.77%
13,Cc1c(Cc2ccccc2)sc(N)c1C(N)=O,-0.711%
14,CNS(=O)(=O)c1cc(O)c2c(S(=O)(=O)NC)cccc2c1,-0.294%
15,CN(CCO)S(=O)(=O)c1ccc2c(c1)oc(=O)c1cc(S(=O)(=O)N(C)CCO)ccc12,-6.23%
16,CC(C)(C)c1ccc(OCc2nnc(-c3ccccc3Cl)o2)cc1,-2.99%
17,CCN1CCN(C(=O)c2ccc3c(c2)sc2nc(-c4ccc(C)cc4)cn23)CC1,6.88%
18,COc1ccccc1C(=O)Nc1ccc(NC(C)=O)cc1,-3.92%
19,CC(C)(C)C(=O)N1CCCC1C(=O)Nc1ccc2ccccc2c1 (stereo not drawn),2.01%
20,COc1ccc(C2=N/C(=C\c3cc(OC)c(OC)c(OC)c3)C(=O)O2)c(Cl)c1,6.38%
21,CSc1nc2oc3c(c2c2nnnn12)CC(C)(C)OC3,-4.43%

# Source: publication PMC6919601, “Identification of Plasmodium dipeptidyl aminopeptidase allosteric inhibitors by high throughput screening” (PLoS ONE, 2019)
